Test results published in PubChem BioAssay AID624417 (National Center for Advancing Translational Sciences (NCATS), 2012).
Several values for one entry are separate records, joined by “and”; a condition that tells them apart may be missing. Identical values can stand only once. The campaign covered roughly 410,000 compounds. About 6,400 (1.6%) were called active. Inconclusive means that the source gave no clear call. Such entries were picked first, then a sample of the others. Calls come from the whole dose curve; as a rule, active = well fitted inhibition curve with a large enough effect; inconclusive = small, poorly fitted or top-dose-only effect; inactive = no such curve, though single readings can be large or run the other way. Potencies of inconclusive entries are doubtful fits and often do not repeat.

target: Glucagon-like peptide 1 receptor (Homo sapiens) (UniProt P43220); test: qHTS of GLP-1 Receptor Inverse Agonists (Inhibition Mode); settings: HEK293 GLP-1R CRE-luciferase, luminescence, 24 h, GLP-1R form is constitutively active; activity change, negative = inhibition: at 38.3 µM (top of the series) unless noted; note: nearly all actives have a fitted effect of over 55% in size
In short: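 Seeding at 200 cells/uL, 12 h culture, 24 hr compound treatment, then luciferase reagent and a luminescence read; cells are HEK293 stably expressing a constitutively active GLP-1R plus cAMP-responsive luciferase.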
% is set by controls: 0 for no effect and ±100 for the full control effect; potency is the fitted concentration of half-maximal effect; tags give direction and shape of the fitted curve.

Chain of UniProt P43220 (P43220 whole entry, looked up): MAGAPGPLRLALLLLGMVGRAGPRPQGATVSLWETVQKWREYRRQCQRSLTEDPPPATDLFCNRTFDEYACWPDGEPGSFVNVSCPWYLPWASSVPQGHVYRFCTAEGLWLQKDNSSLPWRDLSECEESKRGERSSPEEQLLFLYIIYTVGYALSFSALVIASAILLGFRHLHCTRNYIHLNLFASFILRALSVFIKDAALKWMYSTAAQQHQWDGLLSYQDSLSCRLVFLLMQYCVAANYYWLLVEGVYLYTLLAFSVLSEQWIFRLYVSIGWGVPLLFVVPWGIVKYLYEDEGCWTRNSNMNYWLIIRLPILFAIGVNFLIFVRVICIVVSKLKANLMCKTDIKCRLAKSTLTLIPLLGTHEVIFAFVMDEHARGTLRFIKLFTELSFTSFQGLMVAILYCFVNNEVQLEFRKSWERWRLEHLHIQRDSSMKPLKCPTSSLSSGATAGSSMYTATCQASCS

Potency, inconclusive:
CC1(C)CC(NC(=O)C2CCN(S(=O)(=O)c3ccccc3C(F)(F)F)CC2)CC(C)(C)N1 28.2 µM [inhibitor, single point]
CCOC(=O)C1=CCC(c2cccc(Cl)c2)N(S(=O)(=O)c2ccc(C)cc2)C1 (stereo not given) 28.2 µM [inhibitor, single point]
O=C(NCCCc1ccccc1)c1cccc(NC(=O)C2CCCCC2)c1 10 µM [inhibitor, partial curve, poor fit]
OC(CNCCNc1ncccc1C(F)(F)F)COc1ccc(F)cc1 (stereo not given) 12.6 µM [inhibitor, single point]
COc1ccc(OC)c(NC2c3ccccc3C(=O)N2Cc2ccc3c(c2)OCO3)c1 (stereo not given) 31.6 µM [inhibitor, single point]
Cc1cc(-c2ccccc2)nc(N/N=C/c2ccc(O)cc2)n1 28.2 µM [inhibitor, single point]
O=C(N/N=C/c1cc(Cl)cc([N+](=O)[O-])c1O)c1ccc2c(c1)OCO2 5.62 µM [inhibitor, partial curve]
CCOc1ccccc1CNC(=O)CCn1ccc2cc(S(=O)(=O)N3CCCCC3)ccc21 14.1 µM [inhibitor, single point] and 10 µM [inhibitor, single point]
Cc1ccc(OCc2cc(C(=O)NCc3cc(F)ccc3C)no2)cn1 11.2 µM [inhibitor, partial curve, poor fit]
CN(c1ccc(OCC(=O)NCc2cccnc2)cc1)S(=O)(=O)c1ccc(Cl)cc1 31.6 µM [inhibitor, single point]
CCC(=NCc1ccc(Cl)c(Cl)c1)c1nc(-c2ccco2)oc1O 11.2 µM [inhibitor, partial curve, poor fit]
CC1CC(C)CN(CCCNC(=O)c2csc3c2CCCCC3)C1 (stereo not given) 28.2 µM [inhibitor, single point]
Cc1cc(C)c2nc(NC(=O)C3CSC4(C)CCC(=O)N34)sc2c1 (stereo not given) 11.2 µM [inhibitor, partial curve, poor fit]
Cc1ccc(NC(=O)C2(C)CCN2C2Cc3ccccc3C2)cc1 (stereo not given) 28.2 µM [inhibitor, single point]
COc1ccc(-n2c(C)c(C)c3c(NCCCN(C)C)ncnc32)cc1 14.1 µM [inhibitor, partial curve, poor fit]
O=C(Nc1sc2c(c1C(=O)O)CCCCC2)c1ccco1 12.6 µM [inhibitor, partial curve, poor fit]
Cc1ccc(Cl)cc1N1CCN(C(=O)c2ccc3nc(N4CCC(C)CC4)sc3c2)CC1 8.91 µM [inhibitor, partial curve, poor fit]
CCOC(=O)[C@]12CCC=C1N(Cc1ccc(Cl)cc1Cl)C(=O)[C@H](CC(=O)N1CCSCC1)C2 14.1 µM [inhibitor, single point]
CCOC(=O)c1cc(-c2ccccc2)n(CCC(=O)Nc2nc3c(C)cccc3s2)c1C 5.62 µM [inhibitor, full curve, poor fit]
CC(C)CCOc1ccccc1Cn1c(=O)sc2ccccc21 20 µM [inhibitor, single point]
CCN1CCCC1CNC(=S)Nc1ccc(C(C)=O)cc1 (stereo not given) 28.2 µM [inhibitor, single point]
O=C1CC[C@@H](O)CCN1CC[C@H](Sc1ccc(Br)cc1)c1ccccc1 10 µM [inhibitor, partial curve, poor fit]
CO/N=C/c1ccc(OC)c(Oc2nc(OC)cc(OC)n2)c1 10 µM [inhibitor, partial curve, poor fit]
CCCCn1c(NC(=O)c2ccccc2)c(C#N)c2nc3ccccc3nc21 7.08 µM [inhibitor, partial curve, poor fit]
COc1ccc(CCNc2ccc(S(=O)(=O)N3CCCC3)cc2[N+](=O)[O-])cc1 14.1 µM [inhibitor, single point]
COc1cc(-c2cc(NC=O)c3ncc(-c4ccc(C(C)=O)cc4)n3c2)ccc1O 17.8 µM [inhibitor, single point]
CC(=O)Nc1cccc(NC(=O)CSc2ncc(C(=O)Nc3ccc(F)cc3)c(=O)n2C)c1 10 µM [inhibitor, partial curve, poor fit]
CSc1ccccc1CNc1nc(NCC2CC2)nc2ccsc12 10 µM [inhibitor, partial curve, poor fit]
COc1ccc(/C=C/C(=O)Nc2ccc(Cl)c(Cl)c2)cc1 28.2 µM [inhibitor, single point]
Cc1cc(-c2ccc(C)c(S(=O)(=O)Nc3cccc(C#N)c3)c2)on1 8.91 µM [inhibitor, partial curve]
COc1cc(C(=O)NCCc2ccc3c(c2)OCO3)cc(OC)c1OC 5.01 µM [inhibitor, full curve]
CNS(=O)(=O)c1cc(-c2nnc(Nc3cc(C)ccc3C)c3ccccc23)ccc1C 10 µM [inhibitor, partial curve, poor fit]
O=C(Nc1ccc2c(c1)CCC2)c1cccc(S(=O)(=O)Nc2ccccc2Cl)c1 11.2 µM [inhibitor, partial curve, poor fit]
COc1ccc2oc(C(=O)NCc3ccccc3CN3CCCC3)c(C)c2c1 11.2 µM [inhibitor, partial curve, poor fit]
Cn1c(=O)n(CCc2ccccc2)c(=O)c2c1nc1n2CCCN1Cc1ccccc1 0.631 µM [inhibitor, full curve, poor fit]
Cc1ccc(-c2nnc(SCC(=O)NCc3ccccc3)nc2-c2ccc(C)cc2)cc1 28.2 µM [inhibitor, single point]
CC1CC(C)CN(S(=O)(=O)c2ccc(NC(=O)CCN3C(=O)C4CC=CCC4C3=O)cc2)C1 (stereo not given) 7.94 µM [inhibitor, partial curve]
O=C1C(=Cc2ccccn2)CCc2ccccc21 11.2 µM [inhibitor, partial curve, poor fit]
CCN(Cc1nc(-c2cccc(Cl)c2)no1)CC1CCCO1 (stereo not given) 28.2 µM [inhibitor, single point]
CC(C)(C)c1ccc(CSc2nnc(-c3ccccn3)n2Cc2ccco2)cc1 5.01 µM [inhibitor, full curve, poor fit]
CCc1ccc(C(=O)NC(Cc2c[nH]c3ccccc23)C(=O)OCC(=O)c2ccc(Br)cc2)cc1 (stereo not given) 15.8 µM [inhibitor, single point]
CCOC(=O)C1=C(C)N=c2s/c(=C\c3ccc(OCC(=O)O)cc3)c(=O)n2C1c1ccc(OC(C)C)cc1 (stereo not given) 28.2 µM [inhibitor, single point]
CCOC(=O)c1cnc2ccccc2c1Nc1cccc(OC)c1 28.2 µM [inhibitor, single point]
OCC1CCCN(C2CCN(Cc3nc(Cc4cccc(C(F)(F)F)c4)no3)CC2)C1 (stereo not given) 1.58 µM [inhibitor, full curve, poor fit]
COc1ccc(CCC(C)NCc2ccc(Cl)c(Cl)c2)cc1 (stereo not given) 28.2 µM [inhibitor, single point]
COc1cc(NC(=O)c2cccc(C)c2)c(OC)cc1NC(=O)CN1CCCCC1 10 µM [inhibitor, partial curve, poor fit]
O=C(CSc1nc(-c2ccco2)cc(C(F)(F)F)n1)NCCc1ccccc1 14.1 µM [inhibitor, partial curve, poor fit]
CCOc1ccccc1NC(=S)N1CCN(c2ccc(O)cc2)CC1 3.55 µM [inhibitor, single point]
CCN(CC)c1ccc(/C=C2/SC(=O)N(C(C)C)C2=O)o1 28.2 µM [inhibitor, single point]

Potency, active:
CCN1CCN(c2cc(-c3ccccc3)nc3cc(-c4cccc(F)c4)nn23)CC1 2.51 µM
COc1ccccc1N1CCN(C(=O)c2cnc(N3CCCCC3)c3ccccc23)CC1 3.55 µM
Cc1onc(-c2ccccc2Cl)c1C(=O)Nc1nc2c(s1)CCCC2 10 µM

Activity change, negative = inhibition, inactive:
Nc1[nH]c(=S)[nH]c(=O)c1-c1ccccc1 -1.22%
CC1=C(C(=O)N2CCCCCC2)CC(CC(=O)NCCN2CCOCC2)C(=O)N1Cc1ccc(F)cc1 (stereo not given) 8.15%
CCc1ccc(-n2c(=O)c3c(C)c(C(=O)N(C)C)sc3n(Cc3ccccc3F)c2=O)cc1 3.85%
Fc1cccc(CSc2ccc3nnc(-c4cccnc4)n3n2)c1 30.6% [at 7.66 µM]
Cc1cccc(NC(=O)c2cc3ccccc3oc2=O)c1 7.15%
COc1cc2[nH]c(=O)n(CCC(=O)NCCC(C)C)c(=O)c2cc1OC 0%
NS(=O)(=O)c1ccc(CCNC(=O)c2ccc(Cl)c(S(=O)(=O)N3CCCCCC3)c2)cc1 -24.7%
Cc1ccc2oc(-c3cccc(NC(=O)c4sc5c([N+](=O)[O-])cccc5c4Cl)c3)nc2c1 3.77%
